# Assay results published in the supplement of paper PMC11417369.
# ± gives the standard deviation of the averaged measurements. This is one part of the list.
# System: PfAP2-I AP2 domain 3 (GST-tagged)
# Assay: gcPBM binding intensity (ln(normalized median fluorescence intensity)); higher = stronger DNA binding
# Procedure, shortened: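 In this array assay, P. falciparum DNA-binding domains with a GST tag, expressed in E. coli, were applied for 1 h to primer-extended double-stranded 36-bp intergenic genomic probes and negative controls on an Agilent 4 × 180k array. Bound protein was visualised with Alexa488 anti-GST antibody at 488 nm. Binding intensity is the highest Masliner-normalised natural-log median intensity across replicate spots of either probe orientation.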
row,Sequence,gcPBM binding intensity (ln)
1,TTTTCATAATATACATGTACATATATAAATTATTAA [XGTACX_site5206],7.71 ± 0.37
2,TATTATAATATGCCTTGTACATATAACAAATTTATT [XGTACX_site108],7.72 ± 0.43
3,TTTTTTTCACAAAATACACACAATATATTTTATATC [CACACA_site1138],7.79 ± 0.61
4,TTTATTTATTACTAAAGTACTAAATCATATTATTAT [XGTACX_site2574],7.38 ± 0.4
5,ATGAACAAGTGGCACACACACATTATAACTAATTTA [CACACA_site5731],8.5 ± 0.45
6,TTCTTTTTTTTTATCACACATATTACAATCTAGTGC [CACACA_site4697],8.26 ± 0.57
7,AAAATAATATTTCCTTGTACACATATGTATTTGTTC [XGTACX_site4430],8.09 ± 0.54
8,AAAAGTCTTCAAATTTGTACATATATATATATATAT [XGTACX_site3404],9.47 ± 0.53
9,GGTACATACAGACACACACACAAAAAAAAAAAAATA [CACACA_site6844],7.79 ± 0.19
10,TTAATATTAATTATATGTACATATAATATATATATA [XGTACX_site1757],8.69 ± 0.014
11,ATCTTTTCATATTGCTGTACAAATTATTTTCATTCG [XGTACX_site492],8.33 ± 0.72
12,ATGTTAAACAAATCTATACACACGTATATGACAAAA [CACACA_site1783],7.83 ± 0.64
13,GAGAAATGGAGACACACACACATATTATATATATAT [CACACA_site1532],9.105 ± 0.049
14,TGTATAAAATTCCATTGTACATATTATTTTACGACA [XGTACX_site7764],7.62 ± 0.5
15,CGAACACAAACACAAACACACATCATATATATATAT [CACACA_site4857],9.3 ± 0.36
16,ATTTTGGAAATAATATGTACATATACATAATATATA [XGTACX_site4177],7.53 ± 0.32
17,AATATACAAAAAAAAAAAAAAAAAAAAAAGATGGAA [TGCATGCA_negctrl_site550],7.5 ± 0.57
18,ATAAAAAAAAAAAGAAGTACATGTATTAAAATTTAT [XGTACX_site3927],7.85 ± 0.51
19,TGAATTTACAAAATCATGCACTTAATTACAGAATAA,8.7 ± 0.45
20,GCAAATCTTATATGAAGTACATATCTTATAAATAAA [XGTACX_site6903],7.72 ± 0.42
21,TTTATTATATTTTTTTGTACATATTGATGTATATAA [XGTACX_site6527],7.77 ± 0.69
22,AGCAAAATGAAATAAATTGGAAAATATTACTGAACG [CACACA_negctrl_site1433],7.58 ± 0.69

row,Sequence,gcPBM binding intensity (ln)
1,TTTCTTTTCTTCTCTATTTTTTTTTCACGGCATTAT [TGCATGCA_negctrl_site484],7.61 ± 0.59
2,ACATTAAAAAATTGTTTGCACTATATAAAATATTAA [GTGCAC_site9728],9.86 ± 0.28
3,AATATAAGAAAAATAACACACACATAAACATATATA [CACACA_site8899],7.76 ± 0.55
4,ATTCATATGAAACACACACACACACCCATAAAAAAA [CACACA_site3246],8.13 ± 0.23
5,TTTTTTTTTTTTTACACACACAAAATATTATAGGTA [CACACA_site7209],8.18 ± 0.66
6,ATTTTTTACATACTCAAATGTTTTAATTTTTTATAT [CACACA_negctrl_site1213],7.82 ± 0.43
7,TCTTTTCAATTTTATATGATCTTAATATTTTATGAA [GTGCAC_negctrl_site294],7.46 ± 0.58
8,ATTTTGTTATTATATATATATATATATATATATATA [XGTACX_negctrl_site590],9.29 ± 0.49
9,AAATGTGAACTATAATAATTTCAACGTCTGATATAA [TGCATGCA_negctrl_site440],7.51 ± 0.31
10,AAATTTATAAAGAACACACACATATATATATATATA [CACACA_site48],9.42 ± 0.18
11,CAAAACCTAATATGTACACACATATACATCACACTT [CACACA_site7480],8.02 ± 0.3
12,TTTCTTTCGAATGCTTCACACATTACTCTTAAATAG [CACACA_site5265],7.88 ± 0.64
13,ATATATATATATATAGTGCACATTTATATAATTATT,11.43 ± 0.092
14,ATTTTAAATTAAATTACACACTACGAATAATATATT [CACACA_site4016],7.64 ± 0.5
15,ATATTTCTGTCAAGCACACATAATATTAATATATGT [CACACA_site318],8.03 ± 0.53
16,ACATATAAAATATTCACACACAAGTTATAGTTCTCG [CACACA_site3626],7.61 ± 0.71
17,AATAAATTATATATCACACATATATATTTATATTTA [CACACA_site5964],7.41 ± 0.45
18,ACAAATAAGTTTTATACACACATATAAGTAAATACA [CACACA_site4157],7.69 ± 0.4
19,GAGAGGAACATTATATGTACATATTAATTCTAAAAT [XGTACX_site5433],7.75 ± 0.31
20,ACAATATTTTTTTATAAACACACATATATATAAATA [CACACA_site9175],7.91 ± 0.39
21,TATAGTGATATATACACACACTTGTCTTGTAAAAAT [CACACA_site6594],8.05 ± 0.35
22,TGTATAAAAATTTATACACACATTTTATATATTTCA [CACACA_site1015],7.62 ± 0.39
